# Experimental data from PMC4336329 (PLoS ONE, 2015).
# Hit rate of the full screen: of about 310,000 compounds, about 14,000 (4.5%) showed an effect of 50% or more. The effect is printed as a negative number. The list shows a part of the results.
# Biological target: human ether-à-go-go-related gene (hERG) potassium channel (human, UniProt Q12809)
# Assay: primary screen, population patch clamp on CHO cells stably expressing hERG
# 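Further: peak tail current of the secondary pulse compared with the same well before compound.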
# Chain of human ether-à-go-go-related gene (hERG) potassium channel (Q12809 whole entry, looked up): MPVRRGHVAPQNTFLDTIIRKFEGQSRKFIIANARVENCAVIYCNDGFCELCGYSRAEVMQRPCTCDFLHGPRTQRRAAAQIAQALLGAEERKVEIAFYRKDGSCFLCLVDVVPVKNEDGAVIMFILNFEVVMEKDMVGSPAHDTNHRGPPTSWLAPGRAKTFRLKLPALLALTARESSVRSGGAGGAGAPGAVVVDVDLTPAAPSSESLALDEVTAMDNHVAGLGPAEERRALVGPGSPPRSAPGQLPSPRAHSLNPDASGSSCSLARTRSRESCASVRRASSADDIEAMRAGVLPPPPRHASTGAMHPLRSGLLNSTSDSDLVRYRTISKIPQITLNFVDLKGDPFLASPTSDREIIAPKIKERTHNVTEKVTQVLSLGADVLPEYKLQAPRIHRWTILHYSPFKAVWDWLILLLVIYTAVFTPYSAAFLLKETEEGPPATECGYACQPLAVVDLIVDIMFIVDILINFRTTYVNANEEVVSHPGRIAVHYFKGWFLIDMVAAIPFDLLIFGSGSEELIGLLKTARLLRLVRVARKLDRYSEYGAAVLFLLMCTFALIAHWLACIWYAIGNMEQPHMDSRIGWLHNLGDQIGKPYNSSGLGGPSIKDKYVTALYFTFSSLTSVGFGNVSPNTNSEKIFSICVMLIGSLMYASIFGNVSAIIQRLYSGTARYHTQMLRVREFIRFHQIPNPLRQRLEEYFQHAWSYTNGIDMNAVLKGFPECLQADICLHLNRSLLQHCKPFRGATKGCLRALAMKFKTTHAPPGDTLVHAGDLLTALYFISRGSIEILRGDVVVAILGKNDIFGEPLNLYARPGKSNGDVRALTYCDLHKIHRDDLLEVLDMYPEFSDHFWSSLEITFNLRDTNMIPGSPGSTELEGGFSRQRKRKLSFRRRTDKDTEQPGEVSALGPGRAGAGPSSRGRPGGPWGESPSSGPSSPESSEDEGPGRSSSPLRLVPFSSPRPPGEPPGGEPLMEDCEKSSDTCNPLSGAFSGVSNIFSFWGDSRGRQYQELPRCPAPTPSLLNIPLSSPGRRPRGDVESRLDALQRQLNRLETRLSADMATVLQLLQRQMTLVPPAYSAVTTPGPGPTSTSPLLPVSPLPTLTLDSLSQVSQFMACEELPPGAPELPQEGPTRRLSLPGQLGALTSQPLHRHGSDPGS
row,Compound,"hERG current change (%, negative = inhibition) at 10uM [%]"
1,COC(=O)C(C(=O)Nc1cccc(C)n1)C1CCCCCC1 (centres unmarked),-11.1
2,Cc1cc(C(=O)NNS(=O)(=O)c2cc(C(=O)O)ccc2Cl)c(C)n1-c1ccccc1,7.06
3,CCOC(=O)c1ccccc1NC(=O)Nc1ccc(OC)c(OC)c1,-3.16
4,CC1CCC(Nc2nnnn2-c2ccccc2)CC1 (centres unmarked),12.2
5,O=C(COC(=O)CCN1C(=O)c2cccc([N+](=O)[O-])c2C1=O)NCc1ccccc1,52.6
6,Brc1cccc(CSc2nnc(-c3ccncc3)o2)c1,-34.2
7,CCOC(=O)c1sc(-n2[nH]c(C)cc2=O)nc1C,6.98
8,COC(=O)C1=C(c2cccc(C#N)c2)C[C@@H]2CC[C@H]1N2C(=O)NCC1CC1,10.9
9,CCOc1ccc(CCNC(=O)c2cc3sccc3n2C)cc1OCC,-34.4
10,COc1ccc(/C=N/NC2=NS(=O)(=O)c3ccccc32)cc1OC,27
11,CCc1ccc2nc(NC(=O)C3CCN(c4ncnc5sc(C)c(C)c45)CC3)sc2c1,9.21
12,Cc1oc(CSCCSCc2cc(C(=O)O)c(C)o2)cc1C(=O)O,16.9
13,Brc1ccc(NC(c2ccccc2)c2ccncc2)cc1.Cl (centres unmarked),17
14,COCCN(C(=S)Nc1c(C)cc(C)cc1C)C(C)c1cccnc1 (centres unmarked),-12.1
15,COc1ccc(OC)c(NC(=O)c2cc3ccccc3o2)c1,4.19
16,COc1ccc(CCNC(=O)c2csc3c2CCCC3)cc1OC,18.2
17,CC(C)c1ccc(N2C(=O)NC(=O)/C(=C/C=C/c3ccco3)C2=O)cc1,2.7
18,O=C(CSc1ccc([N+](=O)[O-])cn1)Nc1ccccc1N1CCOCC1,-19.2
19,C=C(C)Cn1c(-c2ccccc2)nc2ccccc21,-64.9

row,Compound,"hERG current change (%, negative = inhibition) at 10uM [%]"
1,CC(C)CNS(=O)(=O)c1ccc(CCC(=O)O)cc1,12.5
2,NS(=O)(=O)c1cccc(NC(=O)COC(=O)CCSc2ccccc2)c1,-11.2
3,C[C@H](NC(=O)[C@H]1N2C(=O)c3ccccc3C2SC1(C)C)C(=O)NCC1CCCO1 (some centres unmarked),32.2
4,CN(C)c1ccc(-c2nnc(-c3ccc(S(=O)(=O)C(F)F)cc3)o2)cc1,-5.91
5,CC(C)(C)NC(=O)CSc1nnc(-c2ccco2)n1Cc1ccco1,-5.83
6,CC(C)C(=O)NCCc1nc(-c2ccccc2)no1,0.581
7,O=C(Nc1ccnn1C1CCN(C(=O)c2c(F)cccc2F)CC1)C1CC1,13.7
8,CCOCCCNC(=S)N1C2CCC1CC(NC(=O)NC1CCCCC1)C2 (centres unmarked),1.88
9,CC(C)(C)NC(=O)CSc1nncn1NCc1cccc2ccccc12,7.79
10,O=C1NC[C@H](c2ccccc2)N(CCc2cccc(F)c2)C1=O,4.47
11,C#CCOCCOCCOCCNc1nc(N2CCN(C(=O)C([C@@H](C)CC)n3cc(C(N)COC(=O)C(F)(F)F)nn3)CC2)nc(N2CCN(C(=O)[C@H](Cc3cc4ccccc4[nH]3)n3cc(C(N)CO)nn3)CC2)n1.Cl (some centres unmarked),9.56
12,Cc1ccc(NC(=O)c2ccc(OC(=S)N3CCOCC3)cc2)cc1,4.95
13,Cc1ccccc1N1C(=O)c2ccccc2C1O (centres unmarked),20.4
14,CC1CCc2cc(F)ccc2N1C(=O)C12CCC(C)(C(=O)O1)C2(C)C (centres unmarked),-21
15,N#Cc1c(-c2ccncc2)c2c([nH]c1=O)-c1ccccc1OC2,24
16,COc1ccc(N2CCN(c3nc4ccccc4nc3NS(=O)(=O)c3ccccc3)CC2)cc1,1.21
17,O=C(O)c1cccnc1Nc1cccc(C(F)(F)F)c1,28.7
18,COc1ccccc1NC(=O)/C(C#N)=C/c1ccncc1,16.3
19,C/C(=N/Nc1nc(-c2ccccc2)cc(-c2ccc(F)cc2)n1)c1cccc(N)c1,3.2

row,Compound,"hERG current change (%, negative = inhibition) at 10uM [%]"
1,Cc1noc(C)c1COC(=O)COc1cccc2c1OC(C)(C)C2,11
2,CN(C)S(=O)(=O)c1ccc(NC(=O)COC(=O)c2ccccn2)cc1,-1.05
3,CCn1c(SCC(=O)c2ccc(OC)cc2)nnc1C1CC1,6.73
4,Cc1nc([N+](=O)[O-])c(C(=O)OCc2ccccc2C#N)n1C,19.4
5,COc1ccc(-n2c(SCC(N)=O)nnc2-c2ccc(NS(=O)(=O)c3ccc(C)cc3)cc2)cc1,19.8
6,CCc1ccccc1NC(=O)c1cccc(Oc2ccc([N+](=O)[O-])cc2Cl)c1,8.99
7,Nc1ncc(Br)cc1S(=O)(=O)NCCC(=O)N1CCN(c2ncccn2)CC1,-25.6
8,Cc1ccc(OCCSc2ncnc3nc[nH]c23)cc1,3.48
9,COc1ccc(Cl)cc1NC(=O)CNc1ccccc1CN(C)C1CCCCC1,-37.9
10,O=C(Nc1ccc(-c2ccc([N+](=O)[O-])cc2)cc1)c1ccccc1F,19.9
11,COCCN(C(=O)Nc1ccc(F)cc1F)c1nc2ccccc2s1,15.8
12,CCOC(=O)C1=C(C)NC(=O)NC1c1ccc(-c2ccccc2F)o1 (centres unmarked),2.79
13,Cc1nnc(SCC(=O)NC(=O)NCCC(C)C)s1,-8.92
14,Cc1ccc(S(=O)(=O)N2CCCC2C(=O)O)s1 (centres unmarked),-4.11
15,COC(=O)c1ccccc1NC(=O)C1CC(=O)N(c2ccc(F)cc2)C1 (centres unmarked),-22
16,CCOc1ncccc1C(=O)OCCCC(=O)c1ccc(Br)cc1,-17.2
17,CCc1ccccc1N(C(=O)Cn1nnc2ccccc21)C(C(=O)NCCOC)c1ccco1 (centres unmarked),-7.99
18,COCCCN(C(=O)Cc1ccc(Cl)c(Cl)c1)c1c(N)n(Cc2ccccc2)c(=O)[nH]c1=O,7.73
